According to publication PMC4336329 (PLoS ONE, 2015):
Among all 310,000 compounds or so, about 2,200 (0.71%) showed an effect of 50% or more. The effect is printed as a negative number. The list shows a part of the results.

Biological target: human ether-à-go-go-related gene (hERG) potassium channel (human, UniProt Q12809)
Experiment: primary screen, population patch clamp on CHO cells stably expressing hERG

Sequence of human ether-à-go-go-related gene (hERG) potassium channel (Q12809 whole entry, looked up): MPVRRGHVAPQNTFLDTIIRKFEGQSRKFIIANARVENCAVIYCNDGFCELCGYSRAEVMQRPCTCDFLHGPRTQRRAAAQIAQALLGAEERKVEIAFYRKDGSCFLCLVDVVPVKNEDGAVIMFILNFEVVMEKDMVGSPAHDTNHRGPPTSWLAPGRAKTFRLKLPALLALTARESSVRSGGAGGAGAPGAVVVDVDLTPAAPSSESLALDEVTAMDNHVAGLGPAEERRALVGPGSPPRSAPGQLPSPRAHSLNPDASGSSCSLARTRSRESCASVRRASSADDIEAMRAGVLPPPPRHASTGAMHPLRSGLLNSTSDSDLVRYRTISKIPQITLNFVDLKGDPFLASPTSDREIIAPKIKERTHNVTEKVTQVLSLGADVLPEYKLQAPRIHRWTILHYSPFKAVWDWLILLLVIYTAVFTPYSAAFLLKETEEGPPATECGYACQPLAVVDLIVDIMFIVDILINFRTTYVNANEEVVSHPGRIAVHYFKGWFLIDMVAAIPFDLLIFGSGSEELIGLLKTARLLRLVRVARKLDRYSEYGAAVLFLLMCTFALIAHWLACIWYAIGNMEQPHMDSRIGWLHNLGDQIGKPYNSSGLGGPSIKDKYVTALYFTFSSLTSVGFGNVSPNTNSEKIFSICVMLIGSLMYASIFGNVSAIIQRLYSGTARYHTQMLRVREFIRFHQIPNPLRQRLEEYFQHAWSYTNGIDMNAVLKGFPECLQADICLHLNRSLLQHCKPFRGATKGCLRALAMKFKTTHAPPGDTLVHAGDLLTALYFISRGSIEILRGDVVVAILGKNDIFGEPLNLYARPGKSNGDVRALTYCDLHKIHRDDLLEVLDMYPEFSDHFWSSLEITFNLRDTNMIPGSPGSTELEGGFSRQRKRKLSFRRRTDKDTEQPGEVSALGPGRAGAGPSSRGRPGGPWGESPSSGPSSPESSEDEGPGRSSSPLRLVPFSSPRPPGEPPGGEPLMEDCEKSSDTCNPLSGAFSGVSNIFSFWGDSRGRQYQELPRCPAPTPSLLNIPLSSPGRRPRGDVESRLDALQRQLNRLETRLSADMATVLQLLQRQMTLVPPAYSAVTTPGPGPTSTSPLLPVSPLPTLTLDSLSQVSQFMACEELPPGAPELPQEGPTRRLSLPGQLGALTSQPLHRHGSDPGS

| Compound | hERG current change (%, negative = inhibition) at 1uM |
| --- | --- |
| O=C1Cc2ccccc2C(c2ccccc2)N1 (centres unmarked) | 8.8% |
| CCOc1ccc(N/C(=N/c2nc(C)cc(C)n2)NC(=O)CC)cc1 | 7.86% |
| COc1ccc(CNC(=O)C2CCCN(S(=O)(=O)N3CC(C)CC(C)C3)C2)c(OC)c1 (centres unmarked) | 4.92% |
| O=S(=O)(c1cnccc1N1CCN(/N=C/c2ccccc2)CC1)N1CCCCC1 | 12.1% |
| CCC(=O)N1CCc2cc(OC)c(OC)cc2C1COc1ccc(OC)cc1 (centres unmarked) | 5.86% |
| COc1ccccc1-n1cc(C(=O)N2CCCC(CO)(Cc3ccccc3C)C2)cn1 (centres unmarked) | 10.3% |
| CCN1CCN(S(=O)(=O)c2ccc(OC)c(Br)c2)CC1 | 15.5% |
| O=C(CSc1ncn[nH]1)Nc1cccc2ccccc12 | 5.07% |
| COc1ccc([C@@H]2CC=C(C(=O)O)[C@H](c3ccc(F)cc3)N2S(=O)(=O)c2ccccc2C)cc1 | 21.5% |
| COc1ccc2ccccc2c1/C=N/NC(=O)c1nnn(-c2nonc2N)c1CN(C)C | 3.79% |
| Cc1cnn(-c2ccc3nnc(-c4ccc(Br)cc4)n3n2)c1 | -4.21% |
| CCOC(=O)c1cc(-c2ccccc2)sc1NC(=O)CN1C(=O)NC(CC)(c2ccc(F)cc2)C1=O (centres unmarked) | 10.3% |
| COc1cc(/C=N/NC(=O)c2nc(C)cc(C)n2)ccc1O | 12.1% |
| CCOC(=O)c1[nH]c(C)c(CN(CCc2ccc(OC)c(OC)c2)C(=O)CCCC(=O)O)c1C | 13.7% |
| COc1ccc(OC)c(S(=O)(=O)Nc2ccc(-c3ccc4nncn4n3)cc2)c1 | -14.7% |
| CN1C(=O)N(C)c2ccc(C=O)c3cccc1c23 | 15.4% |
| CN1CCN(C(=O)c2ccccc2-c2ccccc2C(=O)O)CC1 | 18.2% |
| COc1ccc(CN(C)C(=O)c2ccc(NS(=O)(=O)c3ccc4[nH]c(=O)[nH]c4c3)cc2)c(OC)c1 | 2% |
| COC(=O)c1ccc(NC(=O)C2CCCN(S(C)(=O)=O)C2)cc1 (centres unmarked) | 8.68% |
| CCCC(=O)Nc1ccc(Cl)c(NC(=S)NC(=O)C(C)C)c1 | 18.9% |
| CC(On1nnc2ccccc21)C(=O)N1CCN(Cc2ccccc2)CC1 (centres unmarked) | 5.06% |
| O=C(c1cc(COc2ccc(F)cc2Cl)on1)N(CCO)Cc1cccs1 | 24.7% |

| Compound | hERG current change (%, negative = inhibition) at 1uM |
| --- | --- |
| COc1cc(C(=O)NC(C)c2ccc3ccccc3c2)cc(Cl)c1O (centres unmarked) | 8.35% |
| CCn1c(C)c(C)c2cc(C(=O)NC3CCCCCC3)ccc21 | 7.79% |
| Cc1ccc2c(Cl)cc(Cl)c(OCC(=O)Nc3cccc(S(N)(=O)=O)c3)c2n1 | 8.17% |
| O=C(Oc1ccc(/C=N/NC(=O)c2ccccc2O)cc1)c1ccccc1 | 0.189% |
| Cc1cc(C(=O)COc2cccnc2[N+](=O)[O-])c(C)n1-c1ccccc1 | 1.73% |
| O=C(NCc1ccncc1)Nc1ccc2c(c1)OCO2 | 6.2% |
| CCOC(=O)Cc1nc2ccccc2[nH]1 | -5.43% |
| O=C(Cn1ncc2c3ccccc3n(Cc3ccccc3F)c2c1=O)N1CCC2(CC1)OCCO2 | -30.1% |
| Cc1ccc(OCCOC(=O)c2cccc(S(=O)(=O)N3CC(C)OC(C)C3)c2)cc1 (centres unmarked) | 3.7% |
| CCN(CC)c1ccc(/C=N/N2CCN(Cc3ccc(C)cc3C)CC2)c(O)c1 | 6.01% |
| O=C(O)c1cc(S(=O)(=O)N2CCN(S(=O)(=O)c3ccccc3)CC2)ccc1Cl | 12.7% |
| Cc1cc(/C=N/NC(=O)c2ccccc2F)c(C)n1-c1ccccc1 | 7.97% |
| O=C(O)c1ccc2nc3c(nc2c1)-c1ccccc1C3=O | 8.14% |
| CCCCOC(=O)Nc1cccc(C(=O)OCC)c1 | 8.89% |
| CSc1ncc(CN2CCCC(C(=O)c3ccc(C(C)(C)C)cc3)C2)cn1 (centres unmarked) | -2.16% |
| CC1(C)CNc2cc([N+](=O)[O-])ccc2S1 | 13% |
| COc1ccc(NC(C)=O)cc1NS(=O)(=O)c1cn(C)c(=O)n(C)c1=O | 12.9% |
| O=C1CC(c2cccc(F)c2)SC(N(c2ccccc2)c2ccccc2)=N1 (centres unmarked) | -10.5% |
| COc1ccc(Oc2coc3cc(OC(=O)/C=C/c4ccc(F)cc4)ccc3c2=O)cc1 | 5.3% |
| c1ccc2c(c1)OCC(CNc1ncnc3nc[nH]c13)O2 (centres unmarked) | 15.1% |
| O=C1NC(=Nc2ccc(F)cc2)SC1Cc1ccc(F)cc1 (centres unmarked) | -11.5% |
| NC(=O)C1=C[C@@H](c2csc3ccccc23)C[C@@H](OCCCCO)O1 | 0.321% |

| Compound | hERG current change (%, negative = inhibition) at 1uM |
| --- | --- |
| COc1cccc(NC(=O)c2cc([N+](=O)[O-])ccc2NC(=O)CNCC2CCCO2)c1 (centres unmarked) | 5.89% |
| COc1ccc(C(C(=O)NC2CCCCC2)N(C(=O)c2sc(C)nc2C)c2ccc(C(C)=O)cc2)cc1 (centres unmarked) | 13.8% |
| COc1ccc(C=NCC2OCCc3ccccc32)cc1OC (centres unmarked) | 6.7% |
| CCOC(=O)c1ccc(NC(=O)CSc2nc(=O)n3cccc(C)c3n2)cc1 | 15.7% |
| CC(CC(=O)Nc1ccccc1)n1ccnc1 (centres unmarked) | -1.99% |
| Cc1cc2c(NCC(C)O)ncnc2s1 (centres unmarked) | 18.6% |
| O=C(CN(C(=O)c1csnn1)c1cccc2ccccc12)NC1CCCC1 | 6.43% |
| O=C(O)COc1ccccc1/C=N/NC(=O)/C(=C\c1ccc2c(c1)OCO2)NC(=O)c1ccccc1 | 8.44% |
| COc1cccc2cc(C(C)N(CCCN3CCOCC3)C(=S)Nc3ccc(C)c(C)c3)oc12 (centres unmarked) | 12.1% |
| O=C(Cn1nnc(-c2ccccc2F)n1)Nc1cccc2ncccc12 | 10.8% |
| CCCc1cc(=O)[nH]c(SCc2cccnc2)n1 | 2.98% |
| CC1Cc2ccccc2N1c1ncnc2c1nnn2Cc1ccccc1Cl (centres unmarked) | 12.3% |
| Cc1ccc(CS(=O)(=O)Cc2ccc(C(=O)NCc3cccnc3)o2)cc1 | 3.15% |
| O=C(NCCO)c1ccc2[nH]c3ccccc3c2c1 | 12.7% |
| O=C(CCN1C(=O)c2ccccc2C1=O)Nc1cccc(S(=O)(=O)N2CCCCC2)c1 | 10.5% |
| COc1ccc(-c2c3c(=O)n(C)c(=O)n(C)c3cn2-c2ccccc2)cc1 | 11.3% |
| O=C(Cn1nc(-c2ccc(Cl)cc2)ccc1=O)NCc1ccc2c(c1)OCO2 | 12.6% |
| CN(C)CCCn1cnc2c(c1=N)C(c1ccccc1)c1ccc3ccccc3c1O2 (centres unmarked) | -61.9% |
| CC1CCCN(C(=O)C2CCN(C(=O)Nc3ccccc3)CC2)C1 (centres unmarked) | 2.01% |
| Cc1ccc(-n2nnnc2SCC(=O)Nc2c(C)n(C)n(-c3ccccc3)c2=O)cc1 | 9.64% |
| CCOc1cc(/C=C2/C(=N)N3N=C(C)SC3=NC2=O)ccc1OS(=O)(=O)c1ccc(C)cc1 | 11.3% |
| COc1ccc(C(=O)N2CCN(C)C(C)C2)cc1OC1CCN(C(C)=O)CC1 (centres unmarked) | 14.7% |

| Compound | hERG current change (%, negative = inhibition) at 1uM |
| --- | --- |
| O=C(/C=C/c1ccco1)NCc1ccccn1 | 4.92% |
| Cc1ccc(Nc2nc3ccccc3nc2Nc2c(C)n(C)n(-c3ccccc3)c2=O)cc1 | 0.207% |
| CC(C)(C)n1nc2c(c1NC(=O)Cc1ccc([N+](=O)[O-])cc1)CS(=O)(=O)C2 | 1.17% |
| COCCNc1nnc(SCC(=O)N2CCN(S(=O)(=O)c3ccccc3)CC2)s1 | -3.27% |
| O=S(=O)(NC1=NCCC1)c1ccc(F)cc1F | 4.09% |
| CC[N+]1(C)CCC(=C2c3ccccc3CC(=O)c3sccc32)CC1.[Br-] (centres unmarked) | 5.25% |
| Cc1cc(=O)[nH]c(N/N=C/c2c(C)oc3ccccc23)n1 | 10.1% |
| CC(=O)Nc1ccc(S(=O)(=O)NCCC(=O)Nc2ccc(C)c(Cl)c2)cc1 | 3.79% |
| Cc1ccc2cc(-c3noc(C(C)(C)C)n3)c(=O)[nH]c2c1 | -10.3% |
| O=C(CN1CCN(c2ccc(O)cc2)CC1)Nc1cc(S(=O)(=O)N2CCCCC2)ccc1Cl | -1.41% |
| FC(F)(F)c1ccc(NC2=NCCC2)cc1 | 6.85% |
| CCn1c(SCC(=O)NC(=O)c2ccccc2OC)nc2ccccc21 | -36.8% |
| CCN(CC)CCOC(=O)c1ccc(Cl)cc1Cl.Cl | -8.41% |
| CCOS(=O)(=O)[O-].CC[n+]1c(/C=C/Nc2ccccc2)oc2ccc(OC)cc21 | -68.8% |
| CCOc1ccc(NN=C(C(=O)OC)C(=O)OC)c([N+](=O)[O-])c1 | 14.3% |
| c1ccc2c(c1)nc(N1CCOCC1)c1c3ccccc3[nH]c21 | 13.7% |
| CCc1cc2cc(C)c(C)cc2nc1SCC(=O)NNC(=O)c1ccco1 | 17% |
| C=CCOc1nc2c(c(=O)n(C)c(=O)n2C)n1Cc1ccc(Cl)cc1Cl | -3.59% |
| O=C(c1cccc([N+](=O)[O-])c1)N1CCCC(C(=O)N2CCCCCC2)C1 (centres unmarked) | 9.57% |
| CC(OC(=O)C1=COCCO1)C(=O)Nc1cccc(S(=O)(=O)N2CCOCC2)c1 (centres unmarked) | 10.6% |
